Experimental data as given in PubChem BioAssay AID1671194 (National Center for Advancing Translational Sciences (NCATS), 2021).
Where “and” joins values, the source holds several entries; their conditions need not be identical. Equal values may be shown once. Among all 140,000 compounds or so, about 240 (0.17%) were called active. The shares of active, inactive and inconclusive entries below differ from those in the screen. The call rests on the fitted dose curve; in most records, active means well fitted inhibition curve with a large enough effect; inconclusive means small, poorly fitted or top-dose-only effect; inactive means no such curve, though single readings can be large or run the other way. Potencies beside an inconclusive call are fits to weak or partial responses and may not hold up.

Test: Primary qHTS assay for inhibitors of alpha-synuclein gene (SNCA) expression; further: nearly all actives have a fitted effect of over 45% in size
Conditions: HEK-293 SNCA-luciferase knock-in, luminescence, 24 h; series mostly up to 57.2 µM
Potency means the concentration at half of the fitted maximal effect; tags describe the fitted curve by direction and shape.

SMILES	Potency
COc1cc2c(cc1OCc1ccccc1)NC(=O)C21CCN(C(C)=O)CC1	inactive
CCOC(=O)[C@H]1CN(C(=O)c2ccc(SC)cc2)[C@]2(C)C(=O)N(CC3CC3)c3ccccc3[C@H]12	inconclusive: 15.8 µM [inhibitor, single point]
COCCn1c(C)cc(C(=O)N2[C@H]3CC[C@@H]2c2cnc(-c4ccc(F)cc4)nc2C3)c1C	active: 25.1 µM
COc1ccc2c(c[n+](C)c3c4cc5c(cc4ccc23)OCO5)c1OC	inconclusive: 30.4 µM [inhibitor, single point] and inconclusive: 39.8 µM [inhibitor, single point]
CNc1ccc2oc(C[C@H]3O[C@@]4(CC[C@H]3C)O[C@H]([C@H](C)C(=O)c3ccc[nH]3)[C@H](C)C[C@H]4C)nc2c1C(=O)O	active: 28.2 µM
Cc1nc(-c2ccccc2Br)cc([C@H]2CN3CC[C@H]2C[C@@H]3CNC(=O)c2ccc(C(C)(C)C)cc2)n1	inconclusive: 39.8 µM [inhibitor, single point]
CC(C)(C)c1ccc(NC(=O)OC[C@H]2C[C@@H]3CCN2C[C@@H]3c2cc(C3CCCC3)nc(-c3ccncc3)n2)cc1	inconclusive: 28.2 µM [inhibitor, single point]
O=[S+]1([O-])NC2(CCN(Cc3ccccc3)C2)COc2ccncc21 (stereo not given)	inconclusive: 8.91 µM [inhibitor, single point]
O=C(NC1CCCCC1)[C@H]1CN2CCC1C[C@@H]2Cn1cc(CSc2ccccc2)nn1 (stereo not given in full)	inconclusive: 28.2 µM [inhibitor, single point]
c1ccc2c(c1)[I+]c1ccccc1-2	inconclusive: 11.2 µM [inhibitor, partial curve, poor fit]
CCC(CC)c1cc([C@H]2CN3CC[C@H]2C[C@@H]3CNC(=O)C(C)(C)C)nc(-c2ccncc2)n1	inconclusive: 22.4 µM [inhibitor, single point]
C=C[C@H]1CN2CC[C@H]1C[C@@H]2CNC(=O)Nc1ccc(C(C)(C)C)cc1	inconclusive: 56.2 µM [inhibitor, single point]
CCOC(=O)[C@H]1CN(C(=O)c2ccno2)[C@]2(C)C(=O)N(CC3CC3)c3ccccc3[C@H]12	inactive
CCCS(=O)(=O)NC[C@H]1C[C@@H]2CCN1C[C@@H]2c1cc(C2CCCC2)nn1C	inconclusive: 12.6 µM [inhibitor, single point]
COc1ccc(C(=O)c2c(C)n(CCN3CCOCC3)c3cc(I)ccc23)cc1	inactive
Cc1cccc(CC(=O)N2CC(N(Cc3ccccc3)C3CCOCC3)C2)c1	inactive
Cc1cccc(CC(=O)N2[C@H]3CC[C@@H]2c2cnc(-c4ccc(F)cc4)nc2C3)c1	inactive
CC(C)NC(=O)N1CCC2(CC1)CCN(C(=O)Oc1ccccc1)CC2	inconclusive: 7.08 µM [inhibitor, partial curve]
COc1ccccc1-c1cc([C@H]2CN3CC[C@H]2C[C@@H]3CNS(=O)(=O)c2ccccc2)n(C)n1	inactive
CCC(CC)c1cc([C@H]2CN3CC[C@H]2C[C@@H]3CNC(=O)COc2ccccc2)nc(-c2ccncc2)n1	inconclusive: 22.4 µM [inhibitor, single point]

SMILES	Potency
COc1cc2c(cc1OCc1ccccc1)N(C(=O)c1cc3ccccc3[nH]1)CC21CCN(C)CC1	inconclusive: 39.8 µM [inhibitor, single point]
CC(=O)c1ccc(NC(=O)NC[C@H]2C[C@@H]3CCN2C[C@@H]3CN2CCC(Cc3ccccc3)CC2)cc1	inactive
CCCCOC(=O)N1C[C@H](C(=O)OCC)[C@H]2c3ccccc3NC(=O)[C@]21C	inconclusive: 3.98 µM [inhibitor, single point]
Cc1ccncc1C(=O)N1[C@H]2CC[C@@H]1c1cnc(-c3ccc(F)cc3)nc1C2	inactive
COc1ccccc1-c1cc([C@H]2CN3CC[C@H]2C[C@@H]3COC(=O)Nc2ccc(C(C)C)cc2)nc(C)n1	inconclusive: 12.6 µM [inhibitor, partial curve, poor fit]
Cc1ccc(NC(=O)CN2C(=O)CN=C(c3ccccc3)c3ccccc32)cc1Cl	inconclusive: 35.5 µM [inhibitor, partial curve, poor fit]
Cc1c2ccncc2c(C)c2c1[nH]c1ccccc12	inconclusive: 28.2 µM [inhibitor, partial curve, poor fit]
COc1cc2c(cc1OCc1ccncc1)NC(=O)C21CCN(c2ncccn2)CC1	inconclusive: 56.2 µM [inhibitor, single point]
CCOC(=O)[C@H]1CN(C(=O)NCc2ccccc2)[C@]2(C)C(=O)N(CCOC)c3ccccc3[C@H]12	inactive
Cc1ncc2c(n1)C[C@@H]1CC[C@H]2N1C(=O)c1cccnc1	inconclusive: 8.91 µM [inhibitor, partial curve]
C#CCN(C)C[C@H]1CN2CC[C@H]1C[C@@H]2CNC(=O)Nc1ccc(C(C)=O)cc1	inactive
COCC1CN(C)CC12CCNCC2 (stereo not given)	inconclusive: 8.91 µM [inhibitor, single point]
COc1cc2c(cc1OCc1ccccc1)NC(=O)C21CCN(CC2CC2)CC1	inactive
C=C[C@H]1CN2CC[C@H]1C[C@@H]2CNS(=O)(=O)c1cccc(F)c1	inconclusive: 56.2 µM [inhibitor, single point]
COc1ccccc1-c1cc([C@H]2CN3CC[C@H]2C[C@@H]3COC(=O)Nc2ccccc2)n(C)n1	inconclusive: 39.8 µM [inhibitor, single point]
COc1ccc(C(=O)NC[C@H]2C[C@@H]3CCN2C[C@@H]3c2cc(-c3ccc(N(C)C)cc3)nc(C)n2)cc1	inconclusive: 25.1 µM [inhibitor, partial curve, poor fit]
CCOC(=O)[C@H]1CN(C(=O)C2CCCC2)[C@]2(C)C(=O)Nc3ccccc3[C@H]12	inactive
O=C1CC(c2ccc(C(F)(F)F)cc2)c2c(c3ccccc3oc2=O)O1 (stereo not given)	inconclusive: 7.08 µM [inhibitor, single point]
Cc1nc(-c2ccc(N(C)C)cc2)cc([C@H]2CN3CC[C@H]2C[C@@H]3CNC(=O)c2ccccc2)n1	inconclusive: 39.8 µM [inhibitor, partial curve, poor fit]
COc1ccccc1N1CCN(C[C@H]2CN3CC[C@H]2C[C@@H]3CNC(=O)Nc2cccc(SC)c2)CC1	inconclusive: 39.8 µM [inhibitor, single point]

SMILES	Potency
O=C(c1ccc2c(c1)OCO2)N1CCC(C(=O)O)(c2ccccc2)CC1	inconclusive: 0.316 µM [inhibitor, full curve, poor fit]
COc1cc2c(cc1OC1CCCC1)NC(=O)C21CCN(c2ncc(C(C)C)cn2)CC1	inconclusive: 56.2 µM [inhibitor, single point]
Cn1cc(CN2CCOC[C@H](O)C2)c2ccccc21	inconclusive: 39.8 µM [inhibitor, partial curve, poor fit]
O=C(C1CCCCC1)N1C[C@@H]2C[C@H](C1)c1ccc(C3CCCCC3)c(=O)n1C2	inactive
CN1CC2(C1)C(=O)N(C)C(=O)[C@@H]1C[C@@H](O)CN12	inconclusive: 79.4 µM [inhibitor, partial curve, poor fit]
CC(=O)c1ccc(NC(=O)NC[C@H]2C[C@@H]3CCN2C[C@@H]3c2cc(-c3cccs3)nc(C)n2)cc1	inactive
CN(C[C@H]1CN2CC[C@H]1C[C@@H]2CNC(=S)NCc1ccco1)c1ccccc1	inconclusive: 56.2 µM [inhibitor, single point]
COc1ccc2c(c1)C1(CCN(C(=O)c3cccc(N(C)C)c3)C1)C(=O)N2C (stereo not given)	inactive
O=C(Nc1ccccc1)OC[C@H]1C[C@@H]2CCN1C[C@@H]2c1cc(C2CCCC2)nc(-c2ccncc2)n1	inconclusive: 39.8 µM [inhibitor, single point]
Cc1ncc2c(n1)C[C@@H]1CC[C@H]2N1C(=O)CCCc1ccccc1	inactive
CN1CCNc2cc(Nc3ccc(F)c(Cl)c3)ncc2C1	inactive
O=C(c1ccoc1)N1CC(CO)C2(CCNCC2)C1 (stereo not given)	inconclusive: 11.2 µM [inhibitor, partial curve, poor fit]
Cn1nc(-c2cccs2)cc1[C@H]1CN2CC[C@H]1C[C@@H]2COC(=O)Nc1ccccc1	inconclusive: 1.78 µM [inhibitor, partial curve, poor fit]
CCN(CC)C(=O)[C@@H]1C=C2c3cccc4[nH]cc(c34)C[C@H]2N(C)C1	inactive
O=c1c2ccccc2nc(/C=C/c2cccc3ccccc23)n1-c1ccc(Cl)cc1	inconclusive: 31.6 µM [inhibitor, single point]
O=C1NCCCCCCN(Cc2ccncc2)[C@@H]2CN(C(=O)COc3ccc(F)cc3)CC[C@@H]12	inconclusive: 39.8 µM [inhibitor, single point]
Ic1ccccc1CNC1C2CCN(CC2)C1C(c1ccccc1)c1ccccc1 (stereo not given)	inconclusive: 7.94 µM [inhibitor, partial curve, poor fit]
CCC(CC)c1cc([C@H]2CN3CC[C@H]2C[C@@H]3CNC(=O)COC)nc(-c2ccncc2)n1	inactive
COc1cc2c(cc1Oc1ccccc1)NC(=O)C21CCN(C(=O)c2scnc2C)CC1	inactive
COc1ccc2c(c1)/C(=C/c1cnc[nH]1)C(=O)N2	inconclusive: 17.8 µM [inhibitor, partial curve, poor fit]
